To fix the notation:
T1: UNK ZnF1-3 (human, UniProt Q9C0B0 31-174)
T1 sequence: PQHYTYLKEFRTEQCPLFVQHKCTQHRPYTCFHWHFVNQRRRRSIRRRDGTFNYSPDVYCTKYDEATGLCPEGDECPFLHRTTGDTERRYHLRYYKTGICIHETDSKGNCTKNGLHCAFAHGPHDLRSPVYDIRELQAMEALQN

B1: chr12:112777701:112777702:+_ENSMUSG00000021282_ENSMUST00000166123|mus_mus|motif|central (ssRNA)
RNA: GGGAGUUCUACAGUCCGACGAUCCGGUCUCUGACAUGAAAAAAUUUUCGCCACUGAGGCUGUAAGCUUCUUGCUUGUAUGCGGUGUUUCCCCAAUACAGGUACCAAUGGCUGCGCAACAGCUCGUUUUCGUCAAAUAAAGACACAACAGAGGAUUGAGCAUCA
B2: chr4:115894766:115894767:+_ENSMUSG00000028698_ENSMUST00000030464|mus_hu|mus_mus_mus_hu_True|8_98 (ssRNA)
RNA: GGGAGUUCUACAGUCCGACGAUCUUCCACACGGAAAGUACUUGGGGGUUUUCCAACGGCCAGUACCAGUCCGGCCAAACUACCCGAACAGGGUCCUCCCCCUCUCUCCUACAGAACACAACAAAAUAACAAAAUACUUUCAAGCAACAGAGGAUUGAGCAUCA
B3: chr16:94664741:94664742:+_ENSMUSG00000040785_ENSMUST00000117648|mus_hu|mus_mus_mus_hu_False|78_98 (ssRNA)
RNA: GGGAGUUCUACAGUCCGACGAUCUGGUACUGAUCUUUGCAUUGGAUAUUCAGGAGAAAUGUUGGCCAAGGGUGUAUAUAUGCUGGUGUACUGGGGCAAACCUGGUAACACGUUUAUGUAUGCUGGCGGUGUCUGGGUGAUAUCCAACAGAGGAUUGAGCAUCA
B4: chr7:135612270:135612271:-_ENSG00000105887_ENST00000393085|hu_mus|hu_hu_hu_mus_False|8_108 (ssRNA)
RNA: GGGAGUUCUACAGUCCGACGAUCGUUUCUGAGAUGUAUGUUAAAUAGUACUUCAGUGGAAAACAAAACUUAACCUUUUAUUAAUGCGUGUUGUACCAAAAGCAGACAUUUUAGCUUCAUUUAUUCACUCAAAAUAUCAUUAAGCAACAGAGGAUUGAGCAUCA
B5: chr11:100882373:100882374:+_ENSMUSG00000019302_ENSMUST00000044721|mus_mus|motif|central (ssRNA)
RNA: GGGAGUUCUACAGUCCGACGAUCUUCCUGGUUAGUGUUGAUUUCCUUCAGUUCAUUUUCAAUCUUCUCGAAAUUGGCCUCGGAGUCGAUCAUGUCCCGAGGGAAGGGCACCUCUGGGUUUUCACCGGUGUCCAUAAUUGGGAUCAACAGAGGAUUGAGCAUCA
B6: chr7:149068622:149068623:-_ENSMUSG00000025139_ENSMUST00000001950|mus_hu|mus_mus_mus_hu_False|1_8 (ssRNA)
RNA: GGGAGUUCUACAGUCCGACGAUCGUGAGGCCUCUGAGUGUGGCUUGUGGUCUGUCCUGGGUUAGAGUUGUUAAUAUCACGGAACAUACCAUCUAGAACGUUCCAGUCCCGCCUGACACCUUCAUUCGCAAGAGGGCAUCUGCUCAACAGAGGAUUGAGCAUCA

The other results are listed elsewhere or left out.

From PMC12136788 come the findings set out here.

This assay addresses T1, UNK ZnF1-3. The assay is described as follows: nsRBNS (natural sequence RNA bind-n-seq); RBNS binding buffer (assumed for nsRBNS): 25 mM Tris pH 7.5, 150 mM KCl, 3 mM MgCl2, 0.01% Triton X-100, 500 ug/ml BSA, 20 U/ml SUPERase-In, 4 C; UNK is unkempt and MSI1 is Musashi-1; names of the RNAs are library labels; protein concentration not given here; high values mean tight binding.
B1 displayed a binding signal of 1.17 enrichment R. Take B2: the binding signal is 1.32 enrichment R. On to B3, for which the binding signal amounted to 0.899 enrichment R. As for B4, the figure is 0.607 enrichment R. B5 gave a binding signal of 0.468 enrichment R.

Molecule B6 registered a binding signal of 0.665 enrichment R.
